Reference: the supplement of paper PMC11417369
± gives the standard deviation of the averaged measurements. The list shows a part of the results.

tested on: PfAP2-G AP2 domain (GST-tagged); test: gcPBM binding intensity (ln(normalized median fluorescence intensity)); higher = stronger DNA binding
Summary of the method: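 Using an Agilent 4 × 180k array, primer-extended double-stranded 36-bp intergenic genomic probes and negative controls were exposed for 1 h to GST-fused P. falciparum DNA-binding domains expressed in E. coli. Binding was carried out in 1× PBS with 1% milk, 0.2 mg/ml BSA, 0.5% salmon testes DNA and 0.03% Triton X-100, and protein was detected with Alexa488 anti-GST antibody and a 488 nm scan. Binding intensity is the highest Masliner-normalised natural-log median intensity across replicate spots of either probe orientation.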

Sequence | gcPBM binding intensity (ln)
AGAATTAAAATAAAGGTGCATTTTTTTGTTTCATGT | 9.965 ± 0.021
ATAATACAAAACACAAGTACATAAATTAAAAAGATG [XGTACX_site7839] | 11.4 ± 0.7
AATAATATACCTCTTGTGCACATATTAAAAGTTCAT [GTGCAC_site9536] | 10.5 ± 0.2
TTCGTCTTTTTTCTCACACACCCTTTTTATTAAAAG [CACACA_site7225] | 10.4 ± 0.12
AAAAAAAAAGGTACTACACACTATTCTCAATAGAAA [CACACA_site6193] | 11.1 ± 0.86
AATTTCATTTTACTTATCTAATATTTATAATCTTTT [CACACA_negctrl_site636] | 9.86 ± 0.057
TTCATTCATTTTATTACACACAAAAAAAAAAAAAAA [CACACA_site3680] | 10.1 ± 0.6
AGTTATTTTATAGAATATGAATAATTTTACTTTTCA [XGTACX_negctrl_site403] | 9.53 ± 0.12
TATAAATTATTTATCACACATAAAACAAAAATAAGA [CACACA_site5493] | 10.2 ± 0.2
TACTTCATATAATTAGCACACAATAATTTCTCATTT [CACACA_site2872] | 10.06 ± 0.042
AATTTTTATATAATTTAACACACATTTCATATAAAA [CACACA_site9018] | 10.1 ± 0.23
TTAGGATATTTATTTCGTACATATATTTTTAATTGT [XGTACX_site582] | 10.8 ± 0.45
TACATATTCCTACAAATGTATAAATTATAAATATTA [XGTACX_negctrl_site30] | 9.59 ± 0.11
AACGATATAGGTACTACACACATTATGTCATCCTAT [CACACA_site7205] | 11.2 ± 0.77
TGTATATGTTTAATTAGTACATATAAAGTAACAATA [XGTACX_site1207] | 11.1 ± 0.82
ATATGAAATATATGTAGTACACATAATTAAAAGTAG [XGTACX_site6490] | 11.7 ± 0.86
ATATATATTAAAAATAGTACATATAATAAAAATCAT [XGTACX_site4265] | 11.1 ± 0.73
AAAAAAAAATAATATACACACTCCAATATAAAAAAT [CACACA_site3958] | 9.73 ± 0.17
TGTGTATTATAAACATGTACATAAAAATACGATATT [XGTACX_site3643] | 11.4 ± 0.72

Sequence | gcPBM binding intensity (ln)
CGCACTAAAAAACACACACACACACCCATATATATA [CACACA_site4152] | 10.1 ± 0.25
TATTATATTGTTCATTTACACTTTCATTTTAAAAAA [CACACA_negctrl_site260] | 10.2 ± 0.18
ATATAATAACAAAAGGTGCGCATTAAGACAAAAAAA | 10.4 ± 0.3
TTTTTCCCCCTTTTTTTGATTTTTATCTTAATTCTA [TGCATGCA_negctrl_site287] | 9.91 ± 0.31
TATATATATAGACACACACACATATAAATAAATAAA [CACACA_site444] | 10.1 ± 0.13
TTATTTATTTTCATATGTACTTATTTATAGAGGTTG [XGTACX_site5599] | 11.4 ± 0.89
CATACATACATACATACACACATATATATATATATG [CACACA_site1995] | 10.6 ± 0.28
TTTTTTAAAATAATAGGTACACATAAAAAAAAAAAA [XGTACX_site2517] | 11.2 ± 0.89
AATGATGTTGTATTGTTTCGATATAACATCTAATTT [GTGCAC_negctrl_site309] | 9.83 ± 0.24
AAGGATTATTTTAATCGTACATGTGTAAATAATATA [XGTACX_site6177] | 11 ± 0.61
TTTTTTCATTTTTTATTTTTTTATTTTTTACATATT [GTGCAC_negctrl_site137] | 9.56 ± 0.16
TACTTTTTAGGAAAGTGTACAAGCATATAAGGAATA [XGTACX_site2834] | 11.1 ± 0.6
TTAAAAAAATATTGAAGTACACACATTATAAACTTT [XGTACX_site3548] | 11.4 ± 0.84
ATATTTTGTTATGTAGATGTTGGTAGGAATTTTGGT [CACACA_negctrl_site1104] | 10.1 ± 0.2
AATAAATAAATAAATAAAACAAAGGGATTACATACA [TGCATGCA_negctrl_site513] | 9.84 ± 0.11
CACAACATATATATATATATATATATATATATGTGT [CACACA_negctrl_site28] | 11.6 ± 1.1
AACATAATCTCATATACACACAAAAATATTGAAATA [CACACA_site7085] | 10.1 ± 0.23
ACAAGTTTATTTGTTGCACACATATAAGTAGAGAAA [CACACA_site8994] | 10.3 ± 0.2
AAAAAAAAAAAACACACACACATAGACCTCCAATAG [CACACA_site3562] | 10.4 ± 0.18

Sequence | gcPBM binding intensity (ln)
GCTCATATGACAACAACACACAAAAAAATAAAATGA [CACACA_site714] | 10.2 ± 0.28
ATATAATAAAATTAATGTACATATATGTATTATATA [XGTACX_site3283] | 11.2 ± 0.71
TTTCATATATATGAAACACACAAAGGAAAAAAAATT [CACACA_site4144] | 10.3 ± 0.12
TACTATAACAGACATACACACAAAAAAAAAAAAAAA [CACACA_site538] | 9.94 ± 0.3
TAATAATATATTTGTAGTACACAATTTTTTATAACT [XGTACX_site3951] | 11.6 ± 0.89
TGTTATTAAAATATAGTGCATAATTAACCATTATAA [GTGCAC_site9594] | 9.96 ± 0.071
CACACGCACGGACACACACACATATAAAATCTATAT [CACACA_site6428] | 11.2 ± 0.71
TACTTATATACACATGTATATTATATATATAATATA [XGTACX_negctrl_site335] | 10.3 ± 0.36
GAGAGGATAGTTCACAGTACTCAGTAACTCTACGGA [XGTACX_site4875] | 10.8 ± 0.44
ATTTTTTTTTTTTTTTTTTTTTTTTTTTAATCTGGA [CACACA_negctrl_site1347] | 9.68 ± 0.16
ATATTTAACAGGTTAAAAATATAAACAAATAAATAA [CACACA_negctrl_site907] | 10 ± 0.13
AACTCATAGCGGTGTGCACACAAAAAATTAAAAAAA [CACACA_site3033] | 10.9 ± 0.68
AATGTCCTTATTTGCACACACACATATAAGAAATTT [CACACA_site3186] | 10.9 ± 0.72
TATAATAAATCATATGCATGTTGAAAAAAAAAAAAA [TGCATGCA_site923] | 9.74 ± 0.31
ATTTGAGAGTTAACAAAATATTTGGCCATCTTTTAT [XGTACX_negctrl_site447] | 10.01 ± 0.064
ATTATATATATAAAGTGTACAAAAAAAAAAAAAAAA [XGTACX_site3134] | 11.2 ± 1.1
AATCAATATAAATAAAATTTTTAATTTTAACCCTAA [GTGCAC_negctrl_site266] | 9.675 ± 0.049
TCATAAATGAAACACACACACACATCTGGATACCCC [CACACA_site3332] | 10.7 ± 0.49
